{"source": "the supplement of paper PMC11417369", "note": "± gives the standard deviation of the averaged measurements. The list shows a part of the results.", "data": [{"test_system": "PfAP2-I AP2 domain 3 (GST-tagged)", "assay": "gcPBM binding intensity (ln(normalized median fluorescence intensity)); higher = stronger DNA binding", "procedure,_shortened": "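GST-tagged P. falciparum DNA-binding domains, expressed in E. coli (about 25 μg on average), were applied for 1 h to an Agilent 4 × 180k array of primer-extended double-stranded 36-bp intergenic genomic probes plus negative controls. The binding buffer was 1× PBS with 1% milk, 0.2 mg/ml BSA, 0.5% salmon testes DNA and 0.03% Triton X-100. Bound protein was detected with Alexa488 anti-GST antibody and scanned at 488 nm. Binding intensity is the highest Masliner-normalised natural-log median intensity across replicate spots of either probe orientation.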", "values": [{"sequence": "GTATAATATTCATATTCACACATTAAAATATATTTA [CACACA_site4879]", "gcPBM binding intensity (ln)": "7.74 ± 0.45"}, {"sequence": "TAAAAATATATTATATGTACGTATAACAATGTATGA [XGTACX_site8606]", "gcPBM binding intensity (ln)": "7.96 ± 0.41"}, {"sequence": "CCCTTTTTTTTTTAATGTACATATAATTATATATTT [XGTACX_site8568]", "gcPBM binding intensity (ln)": "8.27 ± 0.51"}, {"sequence": "GGAAACCTTTTTTTTACACACAATATATTAAGACTT [CACACA_site4899]", "gcPBM binding intensity (ln)": "7.74 ± 0.67"}, {"sequence": "AATTGTACGTAGGGGTATAAAAGCTTAAAAATGGGG [CACACA_negctrl_site1392]", "gcPBM binding intensity (ln)": "9.18 ± 0.23"}, {"sequence": "AAAGCAAAAGGAAAATAACCAACCCTAATTAACACA [CACACA_negctrl_site530]", "gcPBM binding intensity (ln)": "7.89 ± 0.46"}, {"sequence": "TAGTATTAAATATATACACACATATATACATATAGA [CACACA_site2154]", "gcPBM binding intensity (ln)": "7.59 ± 0.35"}, {"sequence": "TTAATTTTTTTTTCTTGTACACACTATTTTATAATT [XGTACX_site8783]", "gcPBM binding intensity (ln)": "8.19 ± 0.49"}, {"sequence": "GTTGCACAATGTTACACACACAATATATATCGTTAA [CACACA_site1275]", "gcPBM binding intensity (ln)": "8.28 ± 0.4"}, {"sequence": "GTGTACTTTTAAATAGTGCATTTTACAATAATAAAA [GTGCAC_site9653]", "gcPBM binding intensity (ln)": "9.88 ± 0.32"}, {"sequence": "GTAATAAAATGACATACATGCATTACAATTATGTAA [TGCATGCA_site220]", "gcPBM binding intensity (ln)": "7.78 ± 0.47"}, {"sequence": "TATTATAATACTTATTGTACTTTTAGGTTAATTTAT [XGTACX_site995]", "gcPBM binding intensity (ln)": "7.75 ± 0.48"}, {"sequence": "AAGGCAAACAAACACACACACATATATACCTATATA [CACACA_site5203]", "gcPBM binding intensity (ln)": "7.87 ± 0.57"}, {"sequence": "AGAAATGAAATCCAAAAACGAGGAACCAATAACGCA [CACACA_negctrl_site1758]", "gcPBM binding intensity (ln)": "8 ± 0.81"}, {"sequence": "TCTTATCCATATATTACACACTATATATAGAAATTA [CACACA_site291]", "gcPBM binding intensity (ln)": "7.85 ± 0.59"}, {"sequence": "ATATTATATTATTAATGTACATATATATAATTTTAA [XGTACX_site4974]", "gcPBM binding intensity (ln)": "7.59 ± 0.29"}, {"sequence": "TAGGTCCTCATTTTATGTACATAAAGAAATATGATT [XGTACX_site4138]", "gcPBM binding intensity (ln)": "7.86 ± 0.36"}, {"sequence": "TACATACATACATACACACACACATATATATATATA [CACACA_site42]", "gcPBM binding intensity (ln)": "9.51 ± 0.2"}, {"sequence": "TCCTTCGAAACTAAAATTCATTTAAAATATTGATAT [CACACA_negctrl_site369]", "gcPBM binding intensity (ln)": "7.33 ± 0.61"}, {"sequence": "AAAGAAAAAAAAATTACACACATATATTATAGATAT [CACACA_site7495]", "gcPBM binding intensity (ln)": "7.44 ± 0.79"}, {"sequence": "ATATATGCTAATATATGTACTGATTATATCTCTTCA [XGTACX_site7156]", "gcPBM binding intensity (ln)": "7.47 ± 0.47"}, {"sequence": "ATATAAACATTTAGTAATCCATATAGGTACTACTGA [CACACA_negctrl_site1249]", "gcPBM binding intensity (ln)": "7.62 ± 0.31"}, {"sequence": "AAAAAAAATATATAAACACACATATTTATATACGCA [CACACA_site1631]", "gcPBM binding intensity (ln)": "7.41 ± 0.47"}, {"sequence": "TATTTATAGATATATACACACATATACATATTGTTT [CACACA_site7611]", "gcPBM binding intensity (ln)": "7.64 ± 0.28"}, {"sequence": "AAATTAGACTATAATACACACATAAAAAAAAAAAAA [CACACA_site6155]", "gcPBM binding intensity (ln)": "7.91 ± 0.45"}, {"sequence": "AGATATCTTGTGAAATAAAAAAAATAATTGCTTATA [CACACA_negctrl_site798]", "gcPBM binding intensity (ln)": "7.32 ± 0.61"}, {"sequence": "CATCTTAGTTTGAGTTGTACAATATTTATAAAAATA [XGTACX_site693]", "gcPBM binding intensity (ln)": "7.99 ± 0.35"}, {"sequence": "ACAAGTTTAACATTTCGTACTTATTGTGTTTTTTTT [XGTACX_site5487]", "gcPBM binding intensity (ln)": "7.72 ± 0.89"}, {"sequence": "GCAGTATTTCGGAACACACAAACATAAATATGTATT [CACACA_site2316]", "gcPBM binding intensity (ln)": "7.74 ± 0.57"}, {"sequence": "ATATATATATATGTATGTACATATTTTTTTTAACAC [XGTACX_site8475]", "gcPBM binding intensity (ln)": "9.29 ± 0.14"}, {"sequence": "ATATATATTTAAAGATGTACATAATGAAATGGTTAT [XGTACX_site4706]", "gcPBM binding intensity (ln)": "8.23 ± 0.56"}, {"sequence": "AAATTTATTTATTATAGTACACTTAATACTACCCAA [XGTACX_site41]", "gcPBM binding intensity (ln)": "8.02 ± 0.23"}, {"sequence": "AGCACAGACGGACACACACACACACCCACAGACACA [CACACA_site4358]", "gcPBM binding intensity (ln)": "8.23 ± 0.38"}, {"sequence": "GCACAATTTACACTTAAACACACAAAAAAAAATTAT [CACACA_site8642]", "gcPBM binding intensity (ln)": "8.09 ± 0.31"}, {"sequence": "TATACACGCGGACACACACACACACGCAAAAAAAAA [CACACA_site6377]", "gcPBM binding intensity (ln)": "8.53 ± 0.31"}, {"sequence": "TTTACACCGTAATATGCATGTGTGTATATATTTTTG [TGCATGCA_site186]", "gcPBM binding intensity (ln)": "7.74 ± 0.52"}, {"sequence": "ATAAGCCATTTTTGTGGTACATAAAATAGATATATA [XGTACX_site5175]", "gcPBM binding intensity (ln)": "7.63 ± 0.3"}, {"sequence": "TAAAAACCAAAGAAAAGTACAAATTTAAATGAGAAA [XGTACX_site7450]", "gcPBM binding intensity (ln)": "7.83 ± 0.88"}, {"sequence": "TAAACACCCATATAAACACACATACATACATACATA [CACACA_site5383]", "gcPBM binding intensity (ln)": "8.1 ± 0.9"}, {"sequence": "GATTAATTTAAAAAATGTACATTTTATTGTATAACC [XGTACX_site5539]", "gcPBM binding intensity (ln)": "7.79 ± 0.47"}, {"sequence": "ACAATATGTATATATATATATATGCAAATGTATAAA [CACACA_negctrl_site53]", "gcPBM binding intensity (ln)": "7.88 ± 0.5"}, {"sequence": "CCAAGAAACCAAAAAAGTACATACATGGTTATAATT [XGTACX_site4249]", "gcPBM binding intensity (ln)": "7.88 ± 0.36"}, {"sequence": "TGAACTCATAGATTTAGTACATATATAAAAAAATTC [XGTACX_site1692]", "gcPBM binding intensity (ln)": "7.66 ± 0.47"}, {"sequence": "ATATTAAATTCAATTTAATGTTTTGTGAATTTTAGA [CACACA_negctrl_site1421]", "gcPBM binding intensity (ln)": "7.32 ± 0.42"}]}]}
